The whole screen tested about 310,000 compounds, of which about 14,000 (4.5%) showed an effect of 50% or more. The effect is printed as a negative number. This is one part of the list.
Each compound was assayed against human ether-à-go-go-related gene (hERG) potassium channel (human, UniProt Q12809) (assay: primary screen, population patch clamp on CHO cells stably expressing hERG).
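Note: peak tail current of the secondary pulse compared with the same well before compound.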

Chain of human ether-à-go-go-related gene (hERG) potassium channel (Q12809 whole entry, looked up): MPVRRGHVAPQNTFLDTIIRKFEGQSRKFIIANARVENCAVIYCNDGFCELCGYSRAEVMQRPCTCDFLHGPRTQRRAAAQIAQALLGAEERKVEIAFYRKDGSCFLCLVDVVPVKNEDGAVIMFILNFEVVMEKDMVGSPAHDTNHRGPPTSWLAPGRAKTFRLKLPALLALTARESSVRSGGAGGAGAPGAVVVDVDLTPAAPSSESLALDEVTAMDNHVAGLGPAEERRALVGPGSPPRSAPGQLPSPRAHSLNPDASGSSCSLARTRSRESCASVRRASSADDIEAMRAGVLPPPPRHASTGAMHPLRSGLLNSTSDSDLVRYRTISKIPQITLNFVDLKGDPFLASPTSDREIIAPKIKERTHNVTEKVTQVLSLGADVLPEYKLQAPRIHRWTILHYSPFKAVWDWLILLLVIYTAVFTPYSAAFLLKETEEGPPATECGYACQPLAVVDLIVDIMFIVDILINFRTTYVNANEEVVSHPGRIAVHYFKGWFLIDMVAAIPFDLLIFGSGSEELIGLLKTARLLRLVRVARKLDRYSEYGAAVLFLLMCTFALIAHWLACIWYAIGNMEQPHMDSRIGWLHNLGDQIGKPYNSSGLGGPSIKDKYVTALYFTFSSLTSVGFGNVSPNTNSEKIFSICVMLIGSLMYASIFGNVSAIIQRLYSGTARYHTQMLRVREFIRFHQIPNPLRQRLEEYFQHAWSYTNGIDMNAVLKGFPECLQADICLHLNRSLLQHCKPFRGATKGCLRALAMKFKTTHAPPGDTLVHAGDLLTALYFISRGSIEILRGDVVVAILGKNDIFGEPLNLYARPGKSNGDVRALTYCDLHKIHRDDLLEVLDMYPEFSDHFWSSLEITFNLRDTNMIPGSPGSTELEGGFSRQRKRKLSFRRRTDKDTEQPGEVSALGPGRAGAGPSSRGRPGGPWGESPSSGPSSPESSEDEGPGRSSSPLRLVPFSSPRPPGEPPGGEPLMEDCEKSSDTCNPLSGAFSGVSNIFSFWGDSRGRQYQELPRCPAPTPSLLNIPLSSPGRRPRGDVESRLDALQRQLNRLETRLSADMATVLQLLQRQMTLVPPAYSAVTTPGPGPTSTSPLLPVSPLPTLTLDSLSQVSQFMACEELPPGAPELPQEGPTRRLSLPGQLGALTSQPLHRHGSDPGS

| SMILES | hERG current change (%, negative = inhibition) at 10uM [%] |
| --- | --- |
| O=C(NCCCN1CCCC1=O)c1c(O)nc2ccccn2c1=O | 17.3 |
| COC(=O)c1ccc(NC(=O)c2ccccc2CC[N+](=O)[O-])cc1 | 11 |
| Cc1cc(-c2nnco2)c(C)n1-c1ccccc1 | -1.71 |
| CC(=O)Nc1ccc(OCC(O)CN2CCN(c3cccc(Cl)c3)CC2)cc1 (stereo not drawn) | -25.2 |
| COc1cc2c(C(=O)NCCCOC(C)C)cn(CC(C)C)c(=O)c2cc1OC | 5.22 |
| COc1cccc(N(CC(=O)NC2CCCCC2)C(=O)CCC(=O)Nc2nccs2)c1 | 4.13 |
| O=C(C(Cc1ccccc1)n1cccc1)N1CCCCCC1 (stereo not drawn) | 12.1 |
| C=CCNC(=S)N(CC=C)C1CCS(=O)(=O)C1 (stereo not drawn) | 11.7 |
| COc1ccc(NC(=O)C2CCN(C(=O)c3cccs3)CC2)c(OC)c1 | -1.83 |
| CC(Sc1nnc(-c2ccncc2)n1C)C(=O)Nc1ccc(N2CCOCC2)cc1 (stereo not drawn) | -15.2 |
| CC(CNC(=O)c1ccc(-c2ccccc2)cc1)CN(C)C (stereo not drawn) | -38.2 |
| CN(C)c1ccc(C=C2C(=O)NC(=S)NC2=O)cc1[N+](=O)[O-] | 20.9 |
| Cc1ccc(CCN2CCN=C2Nc2ccccc2)cc1 | -25.9 |
| CN(C(=O)Cn1nnc(-c2ccc(F)cc2)n1)C1CCS(=O)(=O)C1 (stereo not drawn) | -2.38 |
| Cc1ccc(-c2ccc(OCC(=O)N3CCOCC3)cc2)cc1 | -13 |
| CCc1cc2c(C)cc(=O)oc2cc1OC(=O)C1CCCN1C(=O)OC(C)(C)C (stereo not drawn) | -14.1 |
| COC(=O)CSc1nc2[nH]ncc2c(=O)[nH]1 | -4.98 |
| NCCc1nnc(SCC(=O)c2ccc(Cl)cc2)o1 | 0.757 |
| Cc1cc2cc(C(c3nnnn3C(C)(C)C)N(Cc3ccco3)CC3CCCO3)c(=O)[nH]c2cc1C (stereo not drawn) | -14.9 |

| SMILES | hERG current change (%, negative = inhibition) at 10uM [%] |
| --- | --- |
| O=C(COC(=O)/C=C/c1ccc(Cl)cc1)Nc1ccccc1 | 18.6 |
| CCN(CC)c1ccc(/C=N/NC(=O)Cc2cccs2)cc1 | -16.6 |
| COc1ccc(C(C(=O)NC(C)(C)C)N(C(=O)Cn2nnc3ccccc32)c2ccc(C(C)=O)cc2)cc1O (stereo not drawn) | -13.1 |
| CCOC(=O)N1CCN(C(=O)CCN2C(=O)/C(=C\c3ccccc3OC)SC2=S)CC1 | -4.5 |
| COc1ccc(CN2CCC(=O)N([C@H](CO)CC(C)C)CC2)cc1OC | -7.9 |
| Oc1ccccc1C(Nc1nccs1)c1ccc2cccnc2c1O (stereo not drawn) | 17.9 |
| CCN(C(=O)c1cn(C)c(=O)c2cc(OC)c(OC)cc12)c1cc(OC)ccc1OC | 3.82 |
| O=C1NC(=O)C(CC(=O)N(c2ccccc2)C2(C(=O)NC3CCCC3)CCCCC2)N1 (stereo not drawn) | 0.074 |
| CC(Oc1ccccc1[N+](=O)[O-])C(=O)N/N=C/c1ccoc1 (stereo not drawn) | -6.7 |
| CC1C(=O)Nc2ccccc2N1C(=O)c1ccc(F)cc1F (stereo not drawn) | 3.22 |
| COc1ccc(NC(=S)NC(=O)c2cncc(Br)c2)cc1 | 13.6 |
| O=C(NCCc1nnc2ccc(NCc3ccccc3Cl)nn12)c1ccccc1 | 10.4 |
| CCN(Cc1nc2ccccc2c(=O)[nH]1)C(=O)c1ccc(C)c(NC(=O)c2ccco2)c1 | -24.6 |
| O=C(OCc1ccccc1F)c1cc2ccccc2cc1O | 20.4 |
| COc1ccc(C2C(C(C)=O)=C(C)Nc3ncnn32)cc1[N+](=O)[O-] (stereo not drawn) | 24.6 |
| CNc1nc(SC)nc(N2CCOCC2)n1 | -1.98 |
| COc1ccc(S(=O)(=O)N2CCOC2CNC(=O)C(=O)NCC(C)C)cc1 (stereo not drawn) | 7.26 |
| COc1cccc(CC(=O)OCC(=O)NCCc2ccc(F)cc2)c1 | -1.37 |
| Cc1cc(C)c2oc(-c3ccc(C)c(NC(=S)NC(=O)/C=C/c4ccco4)c3)nc2c1 | 11.2 |

| SMILES | hERG current change (%, negative = inhibition) at 10uM [%] |
| --- | --- |
| CCCNc1nc2c(c(=O)[nH]c(=O)n2C)n1Cc1ccc(F)cc1 | -4.66 |
| Cc1ccc(SCc2cc(=O)[nH]c(/N=C(\N)Nc3ccccc3Sc3ccccc3)n2)cc1 | 3.89 |
| Cc1ccc(Nc2nc(CSc3nnc(-c4cccnc4)n3-c3ccccc3F)cs2)cc1 | -41.6 |
| CCOC(=O)CN1C(=O)C(=O)c2cccc(C)c21 | 14.1 |
| CCOc1ccc(NC(=O)C2Cc3ccccc3CN2S(=O)(=O)CC)cc1 (stereo not drawn) | -10.7 |
| CS(=O)(=O)c1ccc(C(=O)N2CCc3ccccc3C2)cc1 | 8.96 |
| CCN(CC)CCNc1nc(C(F)(F)F)nc2c1nnn2Cc1ccccc1 | -38.2 |
| O=C(NCCc1ccccc1)c1cccc(S(=O)(=O)N2CCCCC2)c1 | 5.18 |
| COC(=O)c1cc(C(=O)c2c(C)cc3ccccn23)cc([N+](=O)[O-])c1 | 16.5 |
| Cc1onc(-c2c(F)cccc2Cl)c1C(=O)N1C=CC(C(F)(F)Cl)=NCC1 | -13.4 |
| CC(C)(C)NC(=O)CN(CCN1CCOCC1)C(=O)CNS(=O)(=O)c1ccccc1 | 19.4 |
| COC(=O)N1CC(=O)N(OC)C1c1ccc(Cl)cc1Cl (stereo not drawn) | -10.8 |
| O=C(CCn1cnc2ccccc2c1=O)Nc1cccc(Cl)c1 | 0.577 |
| O=C(NNC(=S)Nc1cccc(Cl)c1)c1ccccc1 | 21.7 |
| Fc1ccc(OCc2nn[nH]n2)c(F)c1 | 23.7 |
| CCC(=NC(C)c1ccccc1)c1c(O)[nH]c(=O)[nH]c1=O (stereo not drawn) | -6.08 |
| CCC(=O)NC1CC2CCCC(C1)N2Cc1ccc(C)cc1 (stereo not drawn) | -37.4 |
| Cc1cc(C)nc(NS(=O)(=O)c2ccc(Br)s2)c1.Cl | -5.41 |
| O=C(NC1CCCCC1)c1cc(C2CC2)nn1-c1ccccc1 | -51.2 |
